PMC3196505
Results are given in words; binding and its absence hold for the method and conditions named. Some binding calls cover weakened binding; strength is not graded here. Tags and fused reporters may be left off the sequences shown. Values belong to the binder of their own block, whether it stands above or below them.

Key:
[1] = molecular target: T1, CJD1_(60–164), LexA fusion (bait of the library screen) (Arabidopsis thaliana) (UniProt Q93WG3); test: two-hybrid; library screen by Hybrigenics: LexA-CJD1(60-164) in pB27 as bait, random-primed A. thaliana one-week old seedling cDNA library in pP6 as prey; mating of Y187 and L40ΔGal4; His+ colonies on medium lacking tryptophan, leucine and histidine
T1 sequence: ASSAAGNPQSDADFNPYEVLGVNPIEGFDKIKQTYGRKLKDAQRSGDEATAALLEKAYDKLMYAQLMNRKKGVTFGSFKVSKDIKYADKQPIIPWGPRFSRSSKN

[2] = molecular target: T2, ARC6_(120–331) (Arabidopsis thaliana) (UniProt Q9FIG9); test: two-hybrid; directed Y2H with Clontech MatchMaker GAL4 Two-Hybrid System 3 (pGADT7/pGAD-GW and pGBKT7/pGBK-GW constructs); growth on selective medium
T2 sequence: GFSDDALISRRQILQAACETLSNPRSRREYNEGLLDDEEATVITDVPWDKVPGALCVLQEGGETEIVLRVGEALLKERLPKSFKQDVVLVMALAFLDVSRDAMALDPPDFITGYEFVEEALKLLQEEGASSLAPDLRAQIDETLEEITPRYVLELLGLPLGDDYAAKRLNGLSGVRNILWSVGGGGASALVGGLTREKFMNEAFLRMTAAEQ

[3] = molecular target: T3, ARC6_(84–290) (Arabidopsis thaliana) (UniProt Q9FIG9); test: as above
T3 sequence: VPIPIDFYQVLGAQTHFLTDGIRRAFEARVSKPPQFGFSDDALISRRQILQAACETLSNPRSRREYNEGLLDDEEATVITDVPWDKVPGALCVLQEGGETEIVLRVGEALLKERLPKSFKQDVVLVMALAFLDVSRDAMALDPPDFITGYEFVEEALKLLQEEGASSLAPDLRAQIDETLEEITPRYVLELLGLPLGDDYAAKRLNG

[4] = molecular target: T4, Mature cpHSP70-1 (aa77–718) (Arabidopsis thaliana) (UniProt Q9STW6); test: as above
T4 sequence: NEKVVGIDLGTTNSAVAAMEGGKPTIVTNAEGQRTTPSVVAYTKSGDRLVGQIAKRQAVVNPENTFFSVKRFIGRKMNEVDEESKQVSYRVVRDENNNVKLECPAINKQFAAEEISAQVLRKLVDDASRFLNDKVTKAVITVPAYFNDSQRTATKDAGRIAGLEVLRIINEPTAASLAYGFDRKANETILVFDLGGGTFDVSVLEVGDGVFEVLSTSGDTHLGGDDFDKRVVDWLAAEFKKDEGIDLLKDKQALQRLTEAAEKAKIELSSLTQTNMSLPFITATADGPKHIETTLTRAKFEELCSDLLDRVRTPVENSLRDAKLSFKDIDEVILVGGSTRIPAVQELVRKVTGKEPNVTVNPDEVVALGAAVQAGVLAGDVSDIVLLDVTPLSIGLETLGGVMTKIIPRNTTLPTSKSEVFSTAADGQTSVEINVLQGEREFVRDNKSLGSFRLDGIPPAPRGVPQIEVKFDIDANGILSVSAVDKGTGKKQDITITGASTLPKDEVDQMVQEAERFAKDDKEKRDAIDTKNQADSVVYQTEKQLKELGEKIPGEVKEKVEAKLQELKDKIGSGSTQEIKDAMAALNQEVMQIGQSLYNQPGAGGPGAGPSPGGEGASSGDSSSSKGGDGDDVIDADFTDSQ

[5] = molecular target: T5, ARC6_(84–169) (Arabidopsis thaliana) (UniProt Q9FIG9); test: as above
T5 sequence: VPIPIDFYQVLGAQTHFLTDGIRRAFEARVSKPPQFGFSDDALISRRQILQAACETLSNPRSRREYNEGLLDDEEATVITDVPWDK

[6] = molecular target: T6, ARC6_(84–250) (Arabidopsis thaliana) (UniProt Q9FIG9); test: as above
T6 sequence: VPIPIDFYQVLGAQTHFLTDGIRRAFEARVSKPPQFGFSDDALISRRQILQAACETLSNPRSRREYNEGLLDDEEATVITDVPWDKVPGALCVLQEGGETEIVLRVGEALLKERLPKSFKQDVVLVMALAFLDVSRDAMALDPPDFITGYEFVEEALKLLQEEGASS

[7] = molecular target: T7, ARC6_(84–210) (Arabidopsis thaliana) (UniProt Q9FIG9); test: as above
T7 sequence: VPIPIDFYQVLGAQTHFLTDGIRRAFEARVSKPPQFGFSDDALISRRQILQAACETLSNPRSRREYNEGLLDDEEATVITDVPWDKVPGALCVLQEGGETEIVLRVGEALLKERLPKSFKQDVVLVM

binding [1]: binds
B1: ARC6 library clone, prey fragment nucleotides 174-1265 (domain or fragment, UniProt Q9FIG9 59-422)
chain: SSFATATTTATLVSPPPSIDRPERHVPIPIDFYQVLGAQTHFLTDGIRRAFEARVSKPPQFGFSDDALISRRQILQAACETLSNPRSRREYNEGLLDDEEATVITDVPWDKVPGALCVLQEGGETEIVLRVGEALLKERLPKSFKQDVVLVMALAFLDVSRDAMALDPPDFITGYEFVEEALKLLQEEGASSLAPDLRAQIDETLEEITPRYVLELLGLPLGDDYAAKRLNGLSGVRNILWSVGGGGASALVGGLTREKFMNEAFLRMTAAEQVDLFVATPSNIPAESFEVYEVALALVAQAFIGKKPHLLQDADKQFQQLQQAKVMAMEIPAMLYDTRNNWEIDFGLERGLCALLIGKVDECR

binding [1]: binds
B3: ATSIZ1/SIZ1 library clone, prey fragment nucleotides 387-1984 (domain or fragment, UniProt Q680Q4 130-661)
chain: EDPRCHVWQHVGCVILPDKPMDGNPPLPESFYCEICRLTRADPFWVTVAHPLSPVRLTATTIPNDGASTMQSVERTFQITRADKDLLAKPEYDVQAWCMLLNDKVLFRMQWPQYADLQVNGVPVRAINRPGGQLLGVNGRDDGPIITSCIRDGVNRISLSGGDVRIFCFGVRLVKRRTLQQVLNLIPEEGKGETFEDALARVRRCIGGGGGDDNADSDSDIEVVADFFGVNLRCPMSGSRIKVAGRFLPCVHMGCFDLDVFVELNQRSRKWQCPICLKNYSVEHVIVDPYFNRITSKMKHCDEEVTEIEVKPDGSWRVKFKRESERRELGELSQWHAPDGSLCPSAVDIKRKMEMLPVKQEGYSDGPAPLKLGIRKNRNGIWEVSKPNTNGLSSSNRQEKVGYQEKNIIPMSSSATGSGRDGDDASVNQDAIGTFDFVANGMELDSISMNVDSGYNFPDRNQSGEGGNNEVIVLSDSDDENDLVITPGPAYSGCQTDGGLTFPLNPPGIINSYNEDPHSIAGGSSGLGLFND

binding [1]: binds
B4: ARC6 library clone, prey fragment nucleotides 192-961 (domain or fragment, UniProt Q9FIG9 65-320)
chain: TTTATLVSPPPSIDRPERHVPIPIDFYQVLGAQTHFLTDGIRRAFEARVSKPPQFGFSDDALISRRQILQAACETLSNPRSRREYNEGLLDDEEATVITDVPWDKVPGALCVLQEGGETEIVLRVGEALLKERLPKSFKQDVVLVMALAFLDVSRDAMALDPPDFITGYEFVEEALKLLQEEGASSLAPDLRAQIDETLEEITPRYVLELLGLPLGDDYAAKRLNGLSGVRNILWSVGGGGASALVGGLTREKFMN

binding [1]: binds
B6: At2g22100 (RNA recognition motif (RRM) containing) library clone, prey fragment nucleotides 3-540 (domain or fragment, UniProt Q9SHZ5 2-180)
chain: AKEGEERKKEKKEKKERKERKRREAEELAVREKKISKKHKSKSKEEEKPEKSKKKSKKYEEVEEEEKSPSPSPSPKKSKESKKKHKRSSDESEEIVDSKPVTVPIVTIESDSDFEFDKEDIKNLLESYSKEELINLIYKTAEKGSKLISAVFESADRDSSQRNIFVRGLGWDTTHENLK

binding [1]: binds
B7: ARC6 library clone, prey fragment nucleotides 240-968 (domain or fragment, UniProt Q9FIG9 81-323)
chain: ERHVPIPIDFYQVLGAQTHFLTDGIRRAFEARVSKPPQFGFSDDALISRRQILQAACETLSNPRSRREYNEGLLDDEEATVITDVPWDKVPGALCVLQEGGETEIVLRVGEALLKERLPKSFKQDVVLVMALAFLDVSRDAMALDPPDFITGYEFVEEALKLLQEEGASSLAPDLRAQIDETLEEITPRYVLELLGLPLGDDYAAKRLNGLSGVRNILWSVGGGGASALVGGLTREKFMNEAF

binding [1]: binds
B9: ARC6 library clone, prey fragment nucleotides 159-1030 (domain or fragment, UniProt Q9FIG9 54-343)
chain: SDSSSSSFATATTTATLVSPPPSIDRPERHVPIPIDFYQVLGAQTHFLTDGIRRAFEARVSKPPQFGFSDDALISRRQILQAACETLSNPRSRREYNEGLLDDEEATVITDVPWDKVPGALCVLQEGGETEIVLRVGEALLKERLPKSFKQDVVLVMALAFLDVSRDAMALDPPDFITGYEFVEEALKLLQEEGASSLAPDLRAQIDETLEEITPRYVLELLGLPLGDDYAAKRLNGLSGVRNILWSVGGGGASALVGGLTREKFMNEAFLRMTAAEQVDLFVATPSNIP

Further lines, the binder ahead of its results:

B2: At2g35500 (Shikimate kinase-related) library clone, prey fragment nucleotides 15-1090 (domain or fragment, UniProt O82290 6-363)
chain: SGLAIIFNSPSLNPVTTQATFLSSNRIRSSPRVFSGFHSLRRRGFRRFSQNVIPDRFNSFSCNCLSAVSTSTIDYEFTDGGKEVELRLRLKTGEILSPKDISVDADGTSLAVKEKRNGLLITLLETNHLFEKIMPSETIWYIDEDQLVVNMKKVDGELKWPDIVESWESLTAGMMQLLKGASIYIVGDSTEINQKVSRELAVGLGYSPLDSKELLESFSKQTIDSWILAEGPDSVAEAESSVLESLSSHVRTVVSTLGGKHGAAGRADQWRHLYSGFTVWVSQTEATDEESAKEEARRSKQEREIGYSNADVVVKLQGWDPTHAKSVAQASLSALKQLIISDKGLPGKKSLYIRLGCR
binding [1]: binds

B5: CJD1_(60–164), GAL4 fusion (directed yeast 2-hybrid) (domain or fragment, UniProt Q93WG3 60-164)
chain: T1 sequence
binding [2]: no binding
binding [3]: binds
binding [4]: no binding
binding [5]: no binding
binding [6]: no binding
binding [7]: no binding

B8: At5g53140 (Protein phosphatase 2C, putative) library clone, prey fragment nucleotides 495-978 (domain or fragment, UniProt Q94AT1 166-326)
chain: TKLALNETYKQTDVAFLESEKDTYRDDGSTASAAVLVGNHLYVANVGDSRTIVSKAGKAIALSDDHKPNRSDERKRIESAGGVIMWAGTWRVGGVLAMSRAFGNRMLKQFVVAEPEIQDLEIDHEAELLVLASDGLWDVVPNEDAVALAQSEEEPEAAARK
binding [1]: binds

B10: ARC6 library clone, prey fragment nucleotides 129-1020 (domain or fragment, UniProt Q9FIG9 44-340)
chain: DRLLSDFNFTSDSSSSSFATATTTATLVSPPPSIDRPERHVPIPIDFYQVLGAQTHFLTDGIRRAFEARVSKPPQFGFSDDALISRRQILQAACETLSNPRSRREYNEGLLDDEEATVITDVPWDKVPGALCVLQEGGETEIVLRVGEALLKERLPKSFKQDVVLVMALAFLDVSRDAMALDPPDFITGYEFVEEALKLLQEEGASSLAPDLRAQIDETLEEITPRYVLELLGLPLGDDYAAKRLNGLSGVRNILWSVGGGGASALVGGLTREKFMNEAFLRMTAAEQVDLFVATPS
binding [1]: binds
